According to ChEMBL document CHEMBL4888484, “Replenishing the malaria drug discovery pipeline: Screening and hit evaluation of the MMV Hit Generation Library 1 (HGL1) against asexual blood stage Plasmodium falciparum ,using a nano luciferase reporter read-out” (2022):
The whole screen tested about 150,000 compounds, of which about 540 (0.36%) showed an effect of 50% or more. The list shows a part of the results.

Test system: Plasmodium falciparum
Assay: Primary screen in NF54 nanoGlo assay, in single point, at 2uM, 72h; a lower Z score goes with more inhibition
Assay type: functional, Erythrocyte
Details: timepoint 72 hour

| SMILES | % Inhibition [%] | Z score |
| --- | --- | --- |
| c1ccc2c(c1)CCC[C@H]2c1nnn[nH]1 | -23 | 2.15 |
| CNCC(=O)N1CCc2onc(C(c3ccccc3)c3ccccc3)c2C1 | -16 | 1.82 |
| CCn1ccc(C(=O)N2CCC(Cc3ncc(C)n3CC3CC3)CC2)n1 | -14 | 1.99 |
| CNC/C=C/COc1ccccc1OC | -9 | 0.98 |
| O=C(c1noc2c1CCCC2)N1CCCc2ccccc21 | 0 | 0.07 |
| C[C@@H](CNC(=O)Nc1ccc(C(C)(C)C)nn1)c1nccs1 | -5 | 0.77 |
| Cc1nnc(C2CCN(CC(=O)N3CC(C)OC(C)C3)CC2)s1 (stereo not drawn) | -7 | 0.79 |
| O=C1NC(=O)C2(CCN(C(=O)c3cccc(Oc4ccccc4)c3)CC2)N1 | -1 | 0.12 |
| CC(=O)c1ccc(N2C[C@@H]3OC(=O)N(CCCN4CCOCC4)[C@@H]3C2)nc1 | 12 | -1.39 |
| CC(=O)N(C)c1ccc(S(=O)(=O)NC[C@H]2Cc3ccccc32)cc1 | 0 | -0.01 |
| CC1(C)CS(=O)(=O)N(c2cccc(C(=O)Nc3ccc4c(c3)OCO4)c2)C1=O | -9 | 1.11 |
| O=C(c1cc2n(n1)CCN(Cc1ccc(C(F)(F)F)cc1)C2=O)N1CCCCC1 | -13 | 1.62 |
| CNc1ccccc1-c1ccccc1NC | -12 | 1.8 |
| Cn1cncc1CCN1CCC[C@H](NC(=O)OC(C)(C)C)C1 | -12 | 1.84 |
| O=C(c1cc2ccccc2[nH]1)N1CC[C@@]2(C1)NC(=O)N(Cc1ccc(F)cc1)C2=O | 9 | -1.14 |
| Cc1ncncc1C(=O)Nc1cccnc1C1CC1 | 10 | -1.83 |
| O=C(c1ccco1)N1CCN(C(=O)c2ccccc2NS(=O)(=O)c2ccc(F)c(F)c2)CC1 | -12 | 1.18 |
| CCn1c(-c2cc(NC(=O)C3CCCC3)[nH]n2)cc2ccc(OC)cc21 | 6 | -0.93 |
| COc1ccc(OCc2nc(CCN(C)C(=O)C3CCCC3)no2)cc1 | -5 | 0.74 |
| CC(C)c1ccc(-c2noc(CCC(=O)N3CCOC4CCCC43)n2)cc1 (stereo not drawn) | 5 | -0.74 |
| CCn1cnnc1NC(=O)Cc1cc(Br)ccc1F | -7 | 0.91 |

| SMILES | % Inhibition [%] | Z score |
| --- | --- | --- |
| Cc1nc(N2CCCCCC2)c2sc(=S)n(C)c2n1 | -3 | 0.37 |
| OC[C@@]1(CCc2ccccc2)CCCN(Cc2ccc(F)cc2)C1 | 1 | -0.06 |
| CCn1c(CC2CCN(C(=O)Nc3cc(C)ccc3OC)CC2)nn(C)c1=O | -2 | 0.24 |
| Cc1cc(Cl)c(NC(=O)NCC(C)CC(C)O)c2cccnc12 (stereo not drawn) | 31 | -3.52 |
| Cc1ccc(NC(=O)Cn2nc(-c3ccc(C)cc3)cc(NC(=O)c3ccccc3)c2=O)cc1 | 0 | -0.05 |
| Cc1noc(C)c1C(=O)N1CCCCC[C@H]1c1cc(C(F)(F)F)nn1C | -2 | 0.27 |
| O=C(Nc1nnc[nH]1)C1CC2CCC1O2 (stereo not drawn) | -1 | 0.11 |
| O=C1CN(CC(=O)Nc2ccc3c(c2)OC2(CCCCC2)O3)CCN1 | 10 | -0.85 |
| O=C(Cc1ccc(-c2ccccc2)cc1)N[C@H]1C[C@H]2C(=O)NCC(=O)N2C1 | -13 | 1.55 |
| CC[C@H](NC(=O)c1ccc(C)n1C(F)F)c1ncnn1CC | -4 | 0.67 |
| CCc1nc(CNC(=O)N2C[C@@H](C)N(CC(F)(F)F)[C@@H](C)C2)co1 | -13 | 1.64 |
| Cc1cc(S(=O)(=O)[C@H]2CS(=O)(=O)C[C@@H]2N2CCC(C(N)=O)CC2)ccc1F | 6 | -0.74 |
| O=C(CC1CCCC1)N1CC(N2C(=O)CNC2=O)C1 | -11 | 2.16 |
| O=C1Cc2cc(S(=O)(=O)N3CCN(C(=O)c4ccc(-c5nnco5)cc4)CC3)ccc2N1 | -14 | 2.65 |
| CC1(C)CO[C@H](c2ccccc2Cl)CN1C(=O)c1ccnc(C#N)c1 | 1 | -0.28 |
| Cc1nsc(N(C)Cc2ncc[nH]2)c1C#N | 9 | -1.48 |
| CN(Cc1cnc(-c2ccccc2)s1)C(=O)CCC1=NNC(=O)CC1 | -4 | 0.52 |
| CC(=O)N1CCC(C(NC(=O)c2cccs2)C(=O)N2CCCCC2C)CC1 (stereo not drawn) | 4 | -0.78 |
| CCCC(O)CN(C)CC1CC(c2ccccc2)=NO1 (stereo not drawn) | 4 | -0.65 |
| CCOc1ccccc1N(C(=O)c1cccc(F)c1)c1nc(C(F)(F)F)c(-c2ccc(F)cc2)s1 | -9 | 1.34 |
| CN1CCN(S(=O)(=O)c2cc(C(=O)O)cc(-c3ccc(CN)cc3)c2)CC1 | -5 | 0.56 |

| SMILES | % Inhibition [%] | Z score |
| --- | --- | --- |
| N#Cc1ccnc(N2CC[C@H]3[C@H](CCC(=O)N3CCc3ccccc3)C2)c1 | -14 | 1.39 |
| CC(C)CC[C@@H](CCN1CCCC1)c1ccc(OC(C)C)cc1 | 2 | -0.36 |
| CCc1cnc(C)nc1-c1cccc(C(=O)NCCc2nnc(N)s2)c1 | 5 | -0.96 |
| COc1ccc(S(=O)(=O)NC[C@@H](c2ccc(F)cc2)S(=O)(=O)c2cccs2)cc1Cl | -1 | 0.16 |
| c1cc(CN2CCCn3cncc3C2)n(-c2nccs2)c1 | -3 | 0.6 |
| COCCn1cncc1CN(C)Cc1cnn(C)c1C | -4 | 0.58 |
| CC(C)(C)n1cc(CN2CCn3nncc3C2)cn1 | 7 | -1.11 |
| O=C(Nc1ccc(N2CCOCC2)c(S(=O)(=O)Nc2ccc(Cl)cc2)c1)c1nc(-c2ccccc2)n(-c2cccc(C(F)(F)F)c2)n1 | -3 | 0.45 |
| CC(C)OCCN1CCN(C(=O)[C@@H]2COc3ccccc32)CC1 | -6 | 0.94 |
| CCn1cc(CN(C)C(=O)C[C@H]2COCCN2C(=O)N2CCCCC2)cn1 | -3 | 0.55 |
| CC(=O)N[C@@H]1c2ccccc2C2(CCN(C(=O)c3n[nH]c4ccccc34)CC2)[C@H]1OCc1ccccn1 | -2 | 0.28 |
| Cc1ccc([C@H](C)N(C)C(=O)c2cn3c(n2)CCCC3)c(C)c1 | -2 | 0.22 |
| Cc1nc2ccc(NC(=O)c3ccc4c(c3)OCO4)cc2s1 | -4 | 0.7 |
| CCCn1cc(CN2CCC3(CC2)Cc2cn(nn2)CCCOc2ccc(cc2)CCNC3=O)c(C)n1 | 13 | -1.83 |
| O=C(CCN(Cc1ccco1)c1nc(-c2cccc(Br)c2)nc2ccccc12)Nc1ccc(F)cc1 | -11 | 1.54 |
| O=C(COc1ccc(Cl)cc1)N1CCc2ccccc2[C@@H]1c1ccc(F)cc1 | 4 | -0.54 |
| Cc1ccc(NS(=O)(=O)c2cc(C(=O)NC3CCCCCC3)ccc2C)cc1C | -9 | 1.07 |
| Cc1cc(NC(=O)CCn2cccn2)no1 | 0 | -0.09 |
| CC1CCC(C(N)=O)C(C)N1C(=O)COCC1CCCO1 (stereo not drawn) | -15 | 2.91 |
| C#CCN(C)Cc1nnc(C)n1CCC | -11 | 1.98 |
| C[C@H](NC(=O)Cc1cccnc1)C1=CCCCC1 | -7 | 0.97 |

| SMILES | % Inhibition [%] | Z score |
| --- | --- | --- |
| COc1ccc(NC(=O)[C@@H]2CC(=O)Nc3c(-c4ccc(F)cc4)cnn32)cc1 | -16 | 1.81 |
| Cc1ncc(C(C)NCC2COc3ccccc3O2)c(C)n1 (stereo not drawn) | -5 | 0.7 |
| Cc1nc2c(NC3CCN(C(=O)NCc4ccco4)CC3)cccn2n1 | 16 | -1.83 |
| C[C@H](Nc1ccc2nccnc2n1)C1(CO)CC1 | 5 | -0.94 |
| Cc1ccc(CC(=O)NCCCN2CCOCC2)cc1C | -15 | 2.54 |
| Cc1cc(CS(=O)(=O)Cc2csc(C3CCCCC3)n2)no1 | -13 | 2.17 |
| CCCCS(=O)(=O)NCCNc1ccc(-n2cccn2)nn1 | -8 | 1.53 |
| CN(Cc1csc(-c2ccccc2)n1)C(=O)c1ccc2c(c1)OCC(=O)N2 | -8 | 1.13 |
| CC(C)(C)c1nnsc1C(=O)Nc1ccc2[nH]ncc2c1 | -5 | 0.82 |
| COC(=O)C[C@H](NC(=O)Cc1ccc(Cl)cc1)C1CC1 | -1 | 0.13 |
| CCN1CCCc2cc(C(=O)NCc3cccc(OC)c3)sc21 | -2 | 0.39 |
| CC1(C)CN(C(=O)C2(N)CC3(CCC3)C2)[C@H]1C1CCN(Cc2ccccc2)CC1 | 1 | -0.07 |
| Cc1cc(CNC(=O)[C@H]2CCc3nn(CCOc4ccccc4)c(=O)n3CC2)n(C)n1 | 9 | -1.44 |
| O=C(O)c1cc(-c2c[nH]c3ccccc23)on1 | -12 | 1.46 |
| NCC1CCCN1C(=O)C1CC1c1ccc(F)c(F)c1 (stereo not drawn) | -15 | 1.51 |
| CCC=C(C)C(=O)N1CCCN(C2CCN(CC)CC2)CC1 | -4 | 0.62 |
| Cc1ccc2nc(-c3cc4ccccc4o3)cn2c1 | 61 | -5.65 |
| O=C(O)[C@@H]1C[C@H](O)CCN1C(=O)c1ccccc1-c1ccccc1F | 6 | -1.05 |
| Cc1nnc(CNC(=O)c2ccccc2N(C)c2ccccc2)n1C | -13 | 1.19 |
| Cc1c(Cl)cccc1NC(=O)N[C@@H](C)c1nnc(C(F)(F)F)[nH]1 | 31 | -3.85 |
| O=C(O)[C@H]1CN(C(=O)CCc2cccc(F)c2)C[C@@H]1C1CC1 | 1 | -0.15 |
